Laboratory results published in PubChem BioAssay AID1508623 (National Center for Advancing Translational Sciences (NCATS), 2021).
Among all 48,000 compounds or so, about 450 (0.94%) were called active. Inconclusive results, whose numbers are uncertain, are shown with a selection of clear calls. Calls come from the whole dose curve; as a rule, active = well fitted inhibition curve with a large enough effect; inconclusive = small, poorly fitted or top-dose-only effect; inactive = no such curve, though single readings can be large or run the other way. Potencies of inconclusive entries are doubtful fits and often do not repeat.

Assay: Primary qHTS for Identification of Small Molecule Inhibitors of Huntingtin Promoter Activity; note: nearly all actives have a fitted effect of over 50% in size
Details: HEK293 HTT promoter firefly luciferase reporter (activity 0% = vehicle and -100% = no light), 24 h; activity change, negative = inhibition: at 57.5 µM (top of the series)
Outline: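 HEK293 cells carrying firefly luciferase reporters were seeded at 2,500 per well in Opti-MEM and cultured for 24 h. They were then treated with compounds at up to 57.5 uM final for 24 h at 37 degrees C before Dual-Glo luminescence readout.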
Potency is the fitted concentration of half-maximal effect; tags give direction and shape of the fitted curve.

Potency, inconclusive:
CCOc1ccc(-c2c(C)nn3c(C)c(C(=O)NCC(C)c4ccccc4)cnc23)cc1OCC (stereo not drawn) 28.2 µM [inhibitor, partial curve, poor fit]
CCc1ccc(N2C(=O)CS(=O)(=O)C23C(=O)N(Cc2ccccc2)c2ccccc23)cc1 (stereo not drawn) 15.8 µM [inhibitor, single point]
COc1cccc(CNC(=O)Cn2c(=O)oc3cc(S(=O)(=O)N4CCC(C)CC4)ccc32)c1 15.8 µM [inhibitor, partial curve, poor fit]
COc1ccc(Cn2c(C(=O)O)c(CNCCc3ccccc3Cl)c3ccc(C)cc32)cc1 17.8 µM [inhibitor, single point]
Cc1ccc(CNC(=O)c2ccc3c(c2)N(Cc2cccc(Cl)c2)C(=O)CS3)cc1 39.8 µM [inhibitor, single point]
COc1cc(NC(=O)CSc2nc3nc(C)c(Cc4ccccc4)c(C)n3n2)cc(OC)c1 31.6 µM [inhibitor, single point]
Cc1cc(C)cc(NC(=O)C(=O)NCC(c2cccnc2)N2CCc3ccccc32)c1 (stereo not drawn) 31.6 µM [inhibitor, single point]
COc1ccc(OC)c(-c2noc(N3CCN(c4cc(Cl)ccc4C)CC3)n2)c1 39.8 µM [inhibitor, single point]
COc1ccccc1NC(=O)CN1CCN(CC(=O)Nc2ccc(F)c(F)c2)CC1 39.8 µM [inhibitor, single point]
COc1ccc(C2c3c(-c4ccccc4O)n[nH]c3C(=O)N2CCc2ccccc2)cc1 (stereo not drawn) 35.5 µM [inhibitor, single point]
CN(c1ccccc1)C(CNS(=O)(=O)c1ccccc1)c1ccccc1 (stereo not drawn) 28.2 µM [inhibitor, single point]
COc1ccc(Cc2nnc(C(=O)NCCCN3CCN(c4ccccc4F)CC3)o2)cc1OC 12.6 µM [inhibitor, partial curve]
CCc1ccc(CNC(=O)C(CC)n2nc(C)c3c(C)n(-c4ccccc4)nc3c2=O)cc1 (stereo not drawn) 12.6 µM [inhibitor, partial curve, poor fit]
Cc1ccc(Cl)cc1N1CCN(C(=O)c2cn(CC(C)C)c(=O)c3c2c2ccccc2n3C)CC1 39.8 µM [inhibitor, single point]
COc1ccc(N2CCN(C(=O)c3ccc4c(c3)N(Cc3cc(C)ccc3C)C(=O)c3ccccc3S4=O)CC2)cc1 (stereo not drawn) 28.2 µM [inhibitor, single point]
Cc1ccc(S(=O)(=O)N2CCCc3cc(NC(=O)c4ccc(F)c(F)c4)ccc32)cc1 28.2 µM [inhibitor, single point]
CN(C)C(=O)COC(=O)Cc1ccc(OC(=O)c2ccc(N=C(N)N)cc2)cc1 15.3 µM [inhibitor, partial curve]
CCOc1ccc(-c2c(C)nn3c(-c4ccccc4)c(C(=O)NCCOC)cnc23)cc1OCC 10 µM [inhibitor, partial curve]
COc1cccc(N2C(=O)C(CC(=O)Nc3ccc(F)cc3)N(CCC3=CCCCC3)C2=O)c1 (stereo not drawn) 31.6 µM [inhibitor, partial curve, poor fit]
O=C1C2=C(Nc3ccccc3SC2c2ccc(Cl)c(Cl)c2)c2ccccc21 (stereo not drawn) 22.4 µM [inhibitor, partial curve, poor fit]
COc1ccc(NC(=O)CN(C)S(=O)(=O)c2ccc(C(=O)N3CCOCC3)s2)cc1 35.5 µM [inhibitor, single point]
CC(=O)N1CCCc2cc(S(=O)(=O)N3CCCC(C(=O)NCc4ccccc4)C3)ccc21 (stereo not drawn) 17.8 µM [inhibitor, partial curve, poor fit]
CCC1CN(C(=O)N2CCC(C(=O)NCc3cc(OC)ccc3OC)CC2)c2ccccc2O1 (stereo not drawn) 28.2 µM [inhibitor, single point]
Cn1c(C(=O)NCc2ccc(F)cc2)cc2cc(S(=O)(=O)N3CCCCC3)ccc21 22.4 µM [inhibitor, single point]
CCN(C(=O)Cn1c(SCC(=O)NCc2ccccc2)nc2ccccc21)c1cccc(C)c1 39.8 µM [inhibitor, partial curve, poor fit]
O=C(Nc1cccc(Cl)c1Cl)c1cc2nc(-c3ccc4c(c3)OCO4)cc(C(F)(F)F)n2n1 3.16 µM [inhibitor, partial curve, poor fit]
Cc1ccc(NC(=O)c2nc(S(=O)(=O)Cc3cccc(C)c3)ncc2Cl)cc1 39.8 µM [inhibitor, single point]
CC(C)c1cnn2c(NCc3ccccc3)cc(NCCCCCCN)nc12 24.3 µM [inhibitor, single point]
Cc1ccc(-n2ncc(C(=O)NCc3ccc4c(c3)OCO4)c2C2CCN(C(=O)OC(C)(C)C)CC2)cc1C 20 µM [inhibitor, single point]
Cc1ccc(NCc2cccn2-c2nnc(N3CCC(C(=O)NCc4ccccc4C)CC3)s2)cc1 28.2 µM [inhibitor, single point]
Cc1cc(-c2ccc(S(=O)(=O)Nc3cccc(C(F)(F)F)c3)s2)on1 31.6 µM [inhibitor, partial curve, poor fit]
CN(C(=O)CSc1nc2ccc(NC(=O)COc3ccc(F)cc3)cc2s1)c1ccccc1 25.1 µM [inhibitor, partial curve, poor fit]
Cc1cc(C)c(NC(=O)C2CCN(C(=O)N3CC(C)Oc4ccc(Cl)cc43)CC2)c(C)c1 (stereo not drawn) 20 µM [inhibitor, single point]
Cc1cc(C)cc(NS(=O)(=O)c2ccc(-c3cc(C)no3)s2)c1 10 µM [inhibitor, partial curve]
Cc1ccccc1Cn1c(=O)n(CC2CCC(C(=O)N3CCC(C)CC3)CC2)c(=O)c2sccc21 (stereo not drawn) 17.8 µM [inhibitor, partial curve]
CCc1nn(CCCN2CCN(c3cccc(Cl)c3)CC2)c(=O)n1CCOc1ccccc1 14.1 µM [inhibitor, partial curve, poor fit]
Cc1oc(-c2ccc(C(=O)NCCCOC(C)C)cc2)nc1CS(=O)(=O)c1ccccc1 20 µM [inhibitor, partial curve]
COC(=O)c1ccc(C2c3c(-c4ccc(Br)cc4)n[nH]c3C(=O)N2c2ccc(Cl)cc2)cc1 (stereo not drawn) 39.8 µM [inhibitor, single point]
CCOc1ccc2c(c1)c(=O)c(S(=O)(=O)c1ccc(CC)cc1)cn2CC 28.2 µM [inhibitor, partial curve]
CCOc1ccccc1-c1noc(CSc2nnc(-c3ccncc3)n2-c2ccc(F)cc2)n1 31.6 µM [inhibitor, single point]
Cc1ccc(C)c(N(C)C(=O)CCNC(=O)Cn2cnc3ccccc3c2=O)c1 28.2 µM [inhibitor, single point]
COc1cc2nc(N3CCCN(C)CC3)nc(NC3CCN(Cc4ccccc4)CC3)c2cc1OC 19.3 µM [inhibitor, partial curve]
COc1cccc2sc(N(Cc3cccnc3)C(=O)C3CCCCC3)nc12 39.8 µM [inhibitor, single point]
O=C(NCCS(=O)(=O)N1CCN(c2ccccc2F)CC1)c1ccccc1C(F)(F)F 39.8 µM [inhibitor, single point]
Fc1ccc(F)c(Nc2c3c(nc4ccc(Cl)cc24)CCC3)c1 28.2 µM [inhibitor, single point]
Cc1cccc(-c2nc(SCc3cc(=O)c4cccc(F)c4[nH]3)n[nH]2)c1 20 µM [inhibitor, single point]
Cc1ccc(C)c(N2CCN(C(=O)CN3CCSc4ccccc43)CC2)c1 39.8 µM [inhibitor, partial curve, poor fit]

Activity change, negative = inhibition, inactive:
CN(C[C@@H]1COCCO1)S(=O)(=O)Nc1ccc2ccc3ncc(-c4cnn(C)c4)cc3c(=O)c2c1 14.8%
CCOC(=O)c1[nH]c2ccccc2c1NC(=O)c1ccccc1OC -24%
Cc1ccc(CCNC(=O)c2ccc(CNS(=O)(=O)c3ccc(C)cc3)cc2)cc1 -5.53%
COc1ccccc1Cn1c(CNS(=O)(=O)c2ccc(CC(C)C)cc2)nc2cccnc21 -24.1%
Cc1ccc(Cn2cc(C(=O)c3ccc(C)cc3)c(=O)c3ccc(C)nc32)cc1 -10.4%
Cc1ccc(N2C(=O)c3oc4cc(C)c(C)cc4c(=O)c3C2c2cccc(O)c2)nc1 (stereo not drawn) -15.6%
CC(=O)OCC(=O)Nc1cc(C#N)cc(NC(=O)COC(C)=O)c1Cl -3.67%
O=C(Nc1cccc(Cl)c1)C(Cc1ccccc1)n1cccc1 (stereo not drawn) -20.2%
Cc1cccc2sc(N(Cc3cccnc3)C(=O)CCS(=O)(=O)c3ccccc3)nc12 35.6%
COc1cccc(-c2n[nH]c3c2C(c2cccc(O)c2)N(C)C3=O)c1 (stereo not drawn) 17.8%
CCC(=O)Nc1cc(-c2nc3cc(C)cc(C)c3o2)ccc1C 46.6%
